In all, about 45,000 compounds went through this assay and about 200 (0.44%) were called active. About 7% were inconclusive and are not listed. Calls follow the shape of the dose curve; as a rule, active = well fitted activation curve with a large enough effect; inconclusive = small, poorly fitted or top-dose-only effect; inactive = no such curve, though single readings can be large or run the other way. This is one part of the list.
Experiment: qHTS of TDP-43 Inhibitors: NCGC Sytravon Library Screen; also: 0% is about no effect; nearly all actives have a fitted effect of over 55% in size
Details: yeast TDP-43 toxicity rescue, BacTiter-Glo growth, 24 h; series mostly up to 46.1 µM; growth rescue (activation): at the top concentration
Outline: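 TDP-43-expressing yeast, pregrown in raffinose, seeded at OD600 0.02 in galactose medium with compound for 24 hr at 30 deg C. Growth read by BacTiter-Glo luminescence, so rescue of toxicity appears as activation.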

Row | Compound | growth rescue (activation)
1 | Cc1ncc(CO)c(/C=N/NC(=O)c2ccc(O)cc2)c1O | inactive: 12.5%
2 | CCc1nc2ccc(C(=O)NCCN3CCOCC3)cn2c1N(CC)CCOC | inactive: 0.866%
3 | Cc1cc(C)n(CCCNCC(O)c2ccccc2)n1 (centres undefined) | inactive: 7.2%
4 | Cc1cccc(NC(=S)N(Cc2cccs2)Cc2cc3cc(C)ccc3[nH]c2=O)c1 | inactive: 16.3%
5 | O=C(CC1(O)C(=O)c2ccccc2C1=O)c1ccccc1 | inactive: 1.4%
6 | CC1(C)CC2CC(C)(CN2C(=O)c2ccc([N+](=O)[O-])cc2)C1 (centres undefined) | inactive: 2.92%
7 | COc1ccccc1C1/C(=C(/O)c2ccccc2)C(=O)C(=O)N1CCO (centres undefined) | inactive: -21.1%
8 | Cc1ccc(C(=O)NCC2CCCO2)cc1S(=O)(=O)N1CCCCC1 (centres undefined) | inactive: 4.04%
9 | Cn1nc(C(C)(C)C)cc1C(=O)N1CCCCC1c1cc(C(=O)Nc2cccc3c2CCCC3)no1 (centres undefined) | inactive: -4.42%
10 | CCc1ccc(C(=O)CN2C(=O)NC(C)(c3ccc(C)cc3)C2=O)cc1 (centres undefined) | inactive: 0.27%
11 | Cc1cc(-c2ccccc2)n(-c2ccc(C(N)=O)cc2)n1 | inactive: -4.38%
12 | O=S(=O)(NCC1CCCO1)c1ccc(S(=O)(=O)N(Cc2ccccn2)C2CC2)cc1 (centres undefined) | inactive: 14.3%
13 | CC1(C)CC(=O)c2sc(NS(=O)(=O)c3ccc(Cl)cc3)nc2C1 | inactive: 11.5%
14 | CC(C)c1ccc(N(C(=O)c2csnn2)C(C(=O)NC2CCCC2)c2cccnc2)cc1 (centres undefined) | inactive: 21.7%
15 | O=C1NC2(CCCCCC2)C(=O)N1Cc1cccc([N+](=O)[O-])c1 | inactive: 5.14%
16 | O=C(COC(=O)c1n[nH]c(=O)c2ccccc12)Nc1ccccc1 | inactive: -7.31%
17 | CC1CCN(S(=O)(=O)c2ccc(C(C)C)cc2)CC1 | inactive: -44.3%
18 | O=C(N/N=C/c1cccnc1)c1cccc(NC(=O)c2ccccc2Cl)c1 | inactive: 2.94%
19 | Cc1ccc(S(=O)(=O)Oc2ccc(/C=N/N=C3/NC(=O)C(CC(=O)O)S3)cc2)cc1 (centres undefined) | inactive: 3.37%
20 | Cc1cc(C)cc(C(O)c2ncc(-c3ccc(C(F)(F)F)cc3)[nH]2)c1 (centres undefined) | inactive: 5.85%
21 | Cc1ccc(C(=O)OCC(=O)N2CCC(c3ccccc3)=N2)cc1 | inactive: 19.8%
22 | CN(c1ccccc1)S(=O)(=O)c1cccc(C(=O)OCC(=O)NCc2ccc3c(c2)OCO3)c1 | inactive: -12.3%

Row | Compound | growth rescue (activation)
23 | CCCCNC(=O)C1c2cc(OC)c(OC)cc2C(=O)N(C)C1c1cccs1 (centres undefined) | inactive: 4.62%
24 | CCOc1ccc(C(=O)C[n+]2ccc(C(=O)NCCO)cc2)cc1 | inactive: -20.9%
25 | COc1cc(/C=N\NC(=O)c2ccc(C)nc2)ccc1OC(=O)c1cccc(F)c1 | inactive: 9.32%
26 | O=C(CN1C(=O)NC2(CCCC2)C1=O)Nc1ccc(Cl)c(C(F)(F)F)c1 | inactive: -3.07%
27 | Cc1ccc(C(=O)c2c[nH]c3c(F)cc(F)cc3c2=O)cc1 | inactive: 1.28%
28 | CSCCC(NS(=O)(=O)c1ccc2c(c1)oc(=O)n2C)C(=O)NCc1cccs1 (centres undefined) | inactive: 29.3%
29 | O=C(Nc1ccc2c3c(cccc13)CC2)c1ccco1 | inactive: -17.1%
30 | C/C(=N\NC(=O)C(N)=O)c1ccc(OC(F)F)cc1 | inactive: -1.74%
31 | CCCNC(=S)NNC(=O)c1cccs1 | inactive: -10.6%
32 | CC/C(=N/OC(=O)c1cccc(C)c1)C(=O)c1cccs1 | inactive: 32.2%
33 | Cc1nc(C)c(C(=O)NNC(=O)c2ccc(Br)cc2)s1 | inactive: 9.08%
34 | Cc1ccc(S(=O)(=O)N(C)C)cc1NC(=O)CCNC(=O)c1ccccc1Cl | inactive: 5.52%
35 | Cc1cccc(Nc2cc(C)nc3ccccc23)c1 | inactive: 5.81%
36 | O=C(NC(c1ccc2ccccc2n1)c1cccs1)C1CCN(Cc2cccc(C(F)(F)F)c2)CC1 (centres undefined) | inactive: 23.3%
37 | COc1cccc(NC(=O)c2ccc3nsnc3c2)c1 | inactive: 36.6%
38 | COc1cc(NC(=O)COC(=O)CCc2nc3ccccc3c(=O)[nH]2)cc(OC)c1 | inactive: 5.99%
39 | O=C(Cc1ccc(Cl)cc1)NCC(=O)N1CCCC1 | inactive: -27.9%
40 | CCCCC(Br)C(=O)Nc1ccc(S(=O)(=O)Nc2cc(C)nc(C)n2)cc1 (centres undefined) | inactive: 4.99%
41 | CC(CC1CC(C)(C)OC1=O)C(=O)Nc1ccc([N+](=O)[O-])cc1 (centres undefined) | inactive: -0.0885%
42 | CCn1c(=O)c(C(=O)NNC(=O)c2ccccc2)c(O)c2ccccc21 | inactive: -49.2%
43 | COc1ccc(NC(=O)c2cn(C)c(=O)c3cc(OC)c(OC)cc23)cc1OC | inactive: 7.93%
44 | O=C(NCCc1c[nH]c2ccccc12)c1cc(Cl)c2c(c1)OCO2 | inactive: 28.1%

Row | Compound | growth rescue (activation)
45 | CCOc1ccc(S(=O)(=O)NC2CCCCCC2)cc1 | inactive: 13.1%
46 | COc1ccc(-n2nc(C(=O)NCC(=O)N(C)Cc3ccccc3)c3ccccc3c2=O)c(OC)c1 | inactive: 5.14%
47 | O=C(Cc1c[nH]c2ccccc12)Nc1nnc(C2CC2)s1 | inactive: -10.8%
48 | COc1ccc(/C=C2\SC(=S)N(CC(=O)OCC(=O)Nc3ccc(C)cc3Cl)C2=O)cc1 | inactive: 0.903%
49 | CC(C(=O)Nc1ccc(S(=O)(=O)N2CCOCC2)cc1)N(c1ccccc1)S(C)(=O)=O (centres undefined) | inactive: 4.83%
50 | O=C(COC(=O)/C=C/c1cccc(Br)c1)NC1CCCC1 | inactive: 0.844%
51 | Cn1nccc1-c1ccc(C(=O)Nc2cccc(NS(C)(=O)=O)c2)c2occc12 | inactive: -13.6%
52 | CCn1c(O)c(C2=c3ccccc3=NC2=O)c2cc(Br)ccc21 | inactive: 10.1%
53 | CC1(C)Cc2ccccc2C(=C(C#N)C#N)N1 | inactive: 11.9%
54 | c1ccc(CNc2nc(NCC3CC3)nc3cc(-c4ccccc4)sc23)cc1 | inactive: 19.5%
55 | Cc1cc(Br)ccc1SCC(=O)OCC(=O)NCc1ccco1 | inactive: 20.7%
56 | CCOC(=O)c1ccc(N2Cc3ccccc3C2=NC(=O)c2cccs2)cc1 | inactive: 13.2%
57 | COc1cc(C(=O)NCCSc2ccccc2)cc(OC)c1OC | inactive: 5.81%
58 | Cc1c(C(=O)N2CCN(c3ccccc3)CC2)sc2ncnc(N3CCN(c4ccccn4)CC3)c12 | inactive: 12.6%
59 | Cc1cc(C(=O)OCC(=O)NC(=O)NC(C)(C)C)c(C)o1 | inactive: -8.73%
60 | CCOc1ncccc1C(=O)OCC(=O)Nc1ccc(C)c(S(=O)(=O)N2CCOCC2)c1 | inactive: 11.8%
61 | CC(C)c1nnc(NC(=O)COc2ccccc2[N+](=O)[O-])s1 | inactive: 15.2%
62 | CCOc1ncccc1C(=O)OCC(=O)Nc1ccc(-c2nc3ccc(C)cc3s2)cc1 | inactive: -29.3%
63 | Cc1nc(NC(=O)CSc2nnc(-c3ccncc3)n2C)sc1C | inactive: -25.1%
64 | COc1ccc(OC)c(C(=O)COC(=O)COc2ccccc2)c1 | inactive: -14.1%
65 | Cc1ccc(CNC(=O)c2ccccc2-n2cnnn2)cc1 | inactive: 14.7%
66 | CC(OC(=O)/C(C#N)=C/c1ccco1)C(=O)N(C)c1ccccc1 (centres undefined) | inactive: 11.7%

Row | Compound | growth rescue (activation)
67 | O=C(CSc1nc2[nH]c(=O)cc(O)c2s1)NCCc1ccccc1 | inactive: 17.8%
68 | O=C(O)C1CCC(CN(Cc2cccc(Br)c2)C(=S)Nc2ccccc2F)CC1 (centres undefined) | inactive: 20.9%
69 | Cc1ccc(-c2nnc(/C=C/c3ccccc3)o2)cc1 | inactive: 22.9%
70 | CC1CCN(C(=S)c2cn(Cc3cccc(F)c3)c3ccccc23)CC1 | inactive: 7.83%
71 | O=C1CN(S(=O)(=O)c2cc(Cl)ccc2Cl)c2ccccc2N1 | inactive: -3.57%
72 | O=C(Nc1nnc([C@@H]2C[C@H](O)[C@@H](CO)O2)s1)Nc1cccc2ccccc12 | inactive: -0.302%
73 | CC(C)CC(N)c1csc(NC(=O)NCCc2ccccc2)n1 (centres undefined) | inactive: 7.78%
74 | COc1cccc(Nc2nc(CN3CCOCC3)nc3sc4c(c23)CCCC4)c1 | inactive: -1.53%
75 | CC(=O)Nc1ccc(S(=O)(=O)NCC2CCC(C(=O)NC(C)c3ccccc3)CC2)cc1 (centres undefined) | inactive: 15.6%
76 | CN(Cc1ccc(F)cc1)C(=O)COc1ccc2ccccc2c1 | inactive: 7.08%
77 | Cc1ccc(/C=N/NC(=O)CSc2ccccn2)o1 | inactive: 14.5%
78 | COc1cccc(C(=O)CC(C(=O)O)c2ccc(F)cc2)c1 (centres undefined) | inactive: -4.99%
79 | CCCCC(=O)Nc1cccc(-c2csc(-c3ccccc3)n2)c1 | inactive: 3.38%
80 | Cc1cc(C(=O)Nc2ccc(F)c(Cl)c2)on1 | inactive: 13.5%
81 | CNC(=S)N/N=C/c1cc(C)ccc1C | inactive: 14.2%
82 | CC/C(=C\C(=O)c1cccnc1)Nc1ccc(C)c(C)c1 | inactive: -8.19%
83 | Cc1c(C(=O)N/N=C/C(C)C)[nH]c2c([N+](=O)[O-])cccc12 | inactive: 7.34%
84 | COc1ccc(-c2noc(C(C)NC(=O)c3ccco3)n2)cc1OC (centres undefined) | inactive: 0.895%
85 | COC(=O)c1ccc(NC(=S)NN2CCCCC2c2cccnc2)cc1 (centres undefined) | inactive: -2.12%
86 | CCOc1ccc(C(=O)Nc2ccc(Cc3ccncc3)cc2)cc1Br | inactive: 7.2%
87 | C/C(=N\NC(=O)c1c(C)nc2ccccn12)c1ccc(C(C)(C)C)cc1 | inactive: 2.09%
88 | c1ccc(-c2nc(-n3nc4ccccc4n3)nc3ccccc23)cc1 | inactive: 27.5%

Row | Compound | growth rescue (activation)
89 | CCOC(=O)c1ccc(NC(=O)c2nc(S(=O)(=O)Cc3ccccc3)ncc2Cl)cc1 | inactive: -5.55%
90 | Cc1ccccc1-n1c(SCC(=O)O)nc2sc3c(c2c1=O)CCCC3 | inactive: -9.29%
91 | CN(C)c1ccc(/C=N/Nc2nncc3ccccc23)cc1 | inactive: 6.4%
92 | Cc1nn(CCCC(=O)NCc2ccccc2)c(=O)c2c1sc1ccccc12 | inactive: 12.4%
93 | N#C/C(=N/Nc1ccccc1[N+](=O)[O-])C(N)=S | inactive: -5.05%
94 | O=C1NN(c2ccc(Cl)c(Cl)c2)C(=O)/C1=C/c1ccc(-c2ccccc2C(=O)O)o1 | inactive: 7.77%
95 | CCOC(=O)c1sc(NC(=O)COC(=O)CNC(=O)C2CCCCC2)c(C(=O)OCC)c1C | inactive: 10.5%
96 | O=C(CN1C(=O)COc2ccccc21)NC1CCCC1 | inactive: -8.21%
97 | CCCN1CCN(C(=O)CCNC(=O)Cn2cnc3ccccc3c2=O)CC1 | inactive: -7.18%
98 | C[C@@H](C(=O)NNC(=O)c1ccc(Cl)cc1)N1C(=O)C2CC=CCC2C1=O (some centres undefined) | inactive: -19.1%
99 | COc1ccc(/C(=N\O)c2nccc3cc(OC)c(OC)cc23)cc1OC | inactive: 2.18%
100 | COc1ccc(C(=O)CN2C3=NCCCN3c3ccccc32)cc1OC | inactive: -13.8%
101 | O=C(Nc1ccc(N2CCOCC2)cc1N1CCOCC1)c1ccc(F)cc1 | inactive: 28%
102 | O=C(Nc1cc(N2CCOCC2)ncn1)c1ccccc1 | inactive: 16.4%
103 | O=C(Nc1ccc(OCC(=O)N2CCOCC2)cc1)c1ccccc1F | inactive: 10.5%
104 | CC(=O)Nc1nc(C)c(C(C)C)s1 | inactive: 8.78%
105 | COc1ccc(S(=O)(=O)N2CCN3CCCC3C2)cc1 (centres undefined) | inactive: -14.1%
106 | CCC(=O)NNc1ccc(Br)cc1 | inactive: -2.47%
107 | CC(=O)C1=C(C)NC(SCC(N)=O)=C(C#N)C1CC(C)C (centres undefined) | inactive: -4.19%
108 | CS(=O)(=O)n1nc(-c2ccco2)nc1N | inactive: 7.08%
109 | O=C(CN1CCN(Cc2ccc3c(c2)OCO3)CC1)Nc1ccc2[nH]c(=O)[nH]c2c1 | inactive: 2.66%

Reference: PubChem BioAssay AID1347073 (National Center for Advancing Translational Sciences (NCATS), 2019)
